Assay results from PubChem BioAssay AID1159614 (National Center for Advancing Translational Sciences (NCATS), 2016).
The campaign covered roughly 45,000 compounds. About 65 (0.1%) were called active. The call rests on the fitted dose curve; in most records, active means well fitted activation curve with a large enough effect; inconclusive means small, poorly fitted or top-dose-only effect; inactive means no such curve, though single readings can be large or run the other way. This is one part of the list.

Target: Galactocerebrosidase (Homo sapiens) (UniProt P54803)
Chain of UniProt P54803 (P54803 whole entry, looked up): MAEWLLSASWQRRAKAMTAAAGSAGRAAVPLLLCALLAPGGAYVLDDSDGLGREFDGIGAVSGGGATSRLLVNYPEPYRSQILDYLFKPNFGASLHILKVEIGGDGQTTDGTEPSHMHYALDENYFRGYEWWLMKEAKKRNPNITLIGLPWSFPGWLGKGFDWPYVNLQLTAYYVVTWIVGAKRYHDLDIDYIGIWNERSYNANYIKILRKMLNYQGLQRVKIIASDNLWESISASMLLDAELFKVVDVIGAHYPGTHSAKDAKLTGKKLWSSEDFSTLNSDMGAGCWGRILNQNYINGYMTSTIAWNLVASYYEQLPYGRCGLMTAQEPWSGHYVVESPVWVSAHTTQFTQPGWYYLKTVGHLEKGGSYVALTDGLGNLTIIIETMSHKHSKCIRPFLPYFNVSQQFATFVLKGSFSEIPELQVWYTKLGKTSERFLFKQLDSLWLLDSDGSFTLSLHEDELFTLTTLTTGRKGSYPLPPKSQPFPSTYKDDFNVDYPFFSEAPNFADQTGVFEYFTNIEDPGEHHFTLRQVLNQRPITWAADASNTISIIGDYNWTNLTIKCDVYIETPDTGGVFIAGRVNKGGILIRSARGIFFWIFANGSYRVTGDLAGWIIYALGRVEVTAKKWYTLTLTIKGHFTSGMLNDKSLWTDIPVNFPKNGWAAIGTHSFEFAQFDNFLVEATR
Assay: A Novel Cell-Based Assay to Identify Small Molecules for B -Galactocerebrosidase; further: 0% is about no effect; nearly all actives have a fitted effect of over 65% in size
Conditions: 145M-Twi-hGALC-G270D cells (Twitcher mouse brain line with human GALC G270D), HMU-beta-Gal fluorescence, 48 h; series mostly up to 57.5 µM; activation: at the top concentration
In short: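 Fluorogenic HMU-b-Gal hydrolysis (0.1 mM final, pH 5.2 citrate-phosphate with 1 mg/mL sodium taurocholate; carbonate stop buffer) measures mutant GALC activity after compound treatment of live 145M-Twi Twitcher brain cells stably carrying human GALC-G270D, with wild-type GALC line alongside; activation sought.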

activation, inactive:
Cc1ccc2c(C)c(C(=O)N(Cc3ccc(Cl)cc3)C3CCS(=O)(=O)C3)oc2c1 (stereo not given) -10.1%, CCCNc1c(NC(=O)c2ccc(OCCC)cc2)c(=O)oc2ccccc12 -24.8%, O=C1[C@@H]2CSC(c3ccc(C(F)(F)F)cc3)N2C(=O)N1c1ccccc1 (stereo not given in full) -10.8%, O=C1CN(C(=O)c2ccccc2C(F)(F)F)C(c2ccccc2)c2cc(F)ccc2N1 (stereo not given) -7.13%, COc1cc2c(cc1OC)C(COc1ccc3c(C)cc(=O)oc3c1)N(C(=O)c1ccc(Cl)cc1)CC2 (stereo not given) -14.6%, COc1ccc(-c2nc3ccccc3s2)cc1NC(=O)COc1ccc(C)cc1 -4.1%, CCOc1ccc(NC(=O)CSc2nccn2Cc2ccco2)cc1 -28.4%, CCc1ccccc1NC(=O)c1ccc2c(O)c(S(=O)(=O)c3ccccc3)c(=O)[nH]c2c1 -10.1%, COc1ccc(NC(=O)c2cc3nc(-c4ccc(C)c(C)c4)cc(C(F)(F)F)n3n2)cc1 8.48%, COc1ccccc1CNC(=O)c1oc2ccc(S(=O)(=O)N3CCCCC3)cc2c1C -19.8%, CCC1CCCCN1S(=O)(=O)c1ccc(C(=O)Nc2sc3c(c2C(=O)NC)CCC3)cc1 (stereo not given) -15.8%, COc1ccc(OCC(=O)OCc2cc(=O)n3cc(C)sc3n2)cc1 4.01%, Cc1ccc(N(CC(=O)NCc2ccc(Cl)cc2)S(=O)(=O)N(C)C)cc1 -10.6%, COc1ccc(NC(=O)CSc2nc(-c3ccc(OC)cc3)[nH]c2-c2ccc(OC)cc2)cc1 -10%, CC(C)(C)NCC(O)COc1cccc2c1CCC(=O)N2 (stereo not given) -14.7%, Cc1ccc(CSc2ncc(Cl)c(C(=O)NCCc3ccc(S(N)(=O)=O)cc3)n2)cc1 -4.87%, CCOC(=O)C1CCN(C(=O)CCS(=O)(=O)c2cc3c(cc2Cl)NC(=O)CO3)CC1 6.26%, Cc1ccc(C(=O)Nc2cccc(-c3nc4cccnc4s3)c2C)cc1 -14.4%, Cc1cccc(CN2C(=O)c3ccccc3S(=O)(=O)c3ccc(C(=O)NCCC4=CCCCC4)cc32)c1 0.308%, COC(=O)c1ccc(Nc2nnc(-c3ccc(C)c(S(=O)(=O)N4CCN(C)CC4)c3)c3ccccc23)cc1 -19.4%, COc1ccc(-c2cc(OC(=O)c3ccc(Cl)cc3)c3c(C)oc(C)c3c(=O)c2)cc1 -14.3%, CCCN1CCN(CCNC(=O)Nc2ccc(OC)cc2OC)CC1 -7.49%, O=C(CC1C(=O)N(c2ccccc2)C(=O)N1CCC1=CCCCC1)Nc1ccc(F)cc1 (stereo not given) -19%, CC(=O)N1CCN(c2csc3ccc(F)cc3c2=O)CC1 -11.4%, CCc1ccc(C(=O)c2cn(CC(=O)Nc3ccc(F)cc3)c3ccc(OC)cc3c2=O)cc1 -16.3%, COc1ccc(NC(=O)Cn2c(=O)n(C(C)C)c(=O)c3oc4ccccc4c32)cc1Cl -4.21%, O=C1CN(C(=O)Cc2ccc(F)cc2)C(c2ccccc2)c2cc(Cl)ccc2N1 (stereo not given) -10.1%, Cc1ccccc1NC(=O)CSc1nc(-c2ccccc2C)nc2cc(=O)[nH]n12 -15.8%, CCOc1ccc(NC(=O)N2CCN(S(=O)(=O)c3ccc4c(ccn4C)c3)CC2)cc1 -8.61%, COCCNC(=O)Cn1nc(N2CCN(c3ccccc3OC)CC2)ccc1=O -11%, COc1ccccc1N(CC(=O)NCCSCc1ccccc1)S(=O)(=O)c1ccc(C)cc1 -8.76%, Cc1cc(C)c(NC(=O)C(C)n2nc(-c3ccc(C)c(C)c3)ccc2=O)c(C)c1 (stereo not given) -18.1%, Cc1ccc(NC(=O)Cc2ccc(-n3c(C)nc4cccnc43)cc2)cc1C 19.2%, Cc1cc(C)cc(OCC(=O)NCCc2nc3ccccc3[nH]2)c1 -10.7%, Brc1cccc(CNCCSc2nnnn2-c2ccccc2)c1 -13.6%, CCc1ccccc1N(C)C(=O)Cc1c(C(=O)O)c(C)cn1C -4.36%, Cc1nn(-c2ccccc2)c(OC(=O)C(C)C)c1Sc1ccccc1 -27.6%, COc1ccc(-c2cc(C(C)=O)c(C)n2CCC(=O)NCc2ccccc2OC)cc1 0.359%, CCOC(=O)c1c(C)oc2ncnc(N3CCN(c4ccccc4OC)CC3)c12 -13.7%, COc1ccc(Cn2c(SCc3ccc(C(=O)NC4CCCC4)cc3)nc3ccncc32)cc1 -3.41%, O=C(COc1ccc2oc3c(c2c1)CCCC3)Nc1ccc(Br)cc1 -21.8%, Cc1ccc(Cl)cc1NC(=O)C(C)n1nnc2sc(-c3ccccc3)cc2c1=O (stereo not given) -9.18%, COC(=O)c1cccc(-n2c(CCC(=O)O)ccc2-c2ccc(OC)cc2)c1 -11%, CCOC(=O)c1cc(-c2ccccc2)n(CCCC(=O)Nc2ccc(C(C)C)cc2)c1C -27.8%, COc1cccc(CNC(=O)CCc2cn(Cc3ccccc3Cl)c3ccccc23)c1 -1.2%, CC(=O)N1CCc2cc(Br)cc(S(=O)(=O)N3CCN(c4cccc(C(F)(F)F)c4)CC3)c21 -8.81%, COc1cc(C(CC(=O)NCc2ccc(F)cc2)N2Cc3ccccc3C2=O)cc(OC)c1OC (stereo not given) -5.4%, COc1ccc(NC(=O)Cn2c(=O)n(-c3ccc(OC)c(OC)c3)c(=O)c3ccccc32)cc1 -1.6%, COc1ccccc1NC(=O)C1=C(C)Nc2c(C(=O)Nc3ccc(F)cc3)cnn2C1c1cccc([N+](=O)[O-])c1 (stereo not given) 2.49%, CCCCN(C)c1nc2c(S(=O)(=O)c3ccc(CC)cc3)nnn2c2ccc(Cl)cc12 -8.05%, COc1ccccc1CNC(=O)C1CCCN(c2nc3ccccc3n3cccc23)C1 (stereo not given) -4.18%, CCCCOc1ccc(-c2nn(-c3ccccc3)cc2C2NC(=O)NC(C)=C2C(=O)OC)cc1 (stereo not given) 27.9%, COc1ccc(Cl)cc1C(=O)Nc1sc2c(c1C(=O)OC(C)C)CCCC2 -23.8%, O=C(C1CC1)N1CCc2cc(Br)cc(S(=O)(=O)N3CCN(c4cccc(C(F)(F)F)c4)CC3)c21 -13%, Cc1cccc(N2CCN(c3ncnc4c3nc3n4CCCCC3)CC2)c1C -6.17%, CCC(=O)N1CCc2cc(Br)cc(S(=O)(=O)N3CCC(C(=O)NCCCOC(C)C)CC3)c21 -9.98%, CCOC(=O)c1ccc(NC(=O)c2c(-c3c(F)cccc3Cl)noc2C)cc1 0.791%, COc1ccc(C2CC(=O)c3cc(-c4nc(-c5cccc(Cl)c5)cs4)c(=O)[nH]c3C2)cc1OC (stereo not given) -14.8%, COC(=O)c1ccccc1NC(=O)c1ccc(COc2ccccc2Cl)o1 -10.1%, CCOc1ccc(NC(=O)c2ccc(NC(=O)N3CCSc4ncccc43)cc2)cc1 -6.74%, COc1ccc(C(F)(F)F)cc1NC(=O)c1sc2nc(-c3cccs3)ccc2c1N -10.6%, CC(=O)c1ccc(N2CCN(c3ncnc4c3c(-c3ccccc3)cn4-c3cccc(C)c3)CC2)cc1 -0.993%, Cc1noc(/C=C/c2cccs2)c1S(=O)(=O)N1CCC(C(=O)Nc2ccc(F)c(Cl)c2)CC1 -11.9%, CCn1c(C(=O)NCCc2ccc(OC)c(OC)c2)cc2sc(Cl)cc21 -27.7%, CCOC(=O)c1cnn(-c2ccc(C(=O)Nc3cc(OC)c(OC)c(OC)c3)cc2)c1N 2.04%, CSc1ncc2c(n1)-c1ccccc1N(Cc1ccc(Cl)cc1)S2(=O)=O -5.65%, O=C(CSc1ccccc1)N1CCc2c([nH]c3ccccc23)C1c1ccc(F)cc1 (stereo not given) -38.6%, CC1CCN(S(=O)(=O)c2cn(CC(=O)Nc3cccc(C(F)(F)F)c3)c(=O)c3ccccc23)CC1 -12.3%, O=C(Cn1cc(C(=O)c2ccco2)c2ccccc21)Nc1ccc(Br)cc1 -17.9%, Nc1c(-c2nc(-c3cccs3)no2)nnn1-c1ccc(Cl)cc1 -12.6%, O=C(NC1CCCCC1)c1ccc(Cn2c(SCc3ccccc3F)nc3cccnc32)cc1 -4.55%, COc1cccc(C(=O)Nc2cccc(C(=O)OCc3cc(=O)n4nc(C5CC5)sc4n3)c2)c1 -18.3%, CCCn1c2ccccc2c2cnn(CC(=O)N(C)c3ccc(F)cc3)c(=O)c21 -5.58%, COc1cccc(CSc2nc3ccccc3c3nc(CCn4c(C)nc5ccccc54)nn23)c1 -16.3%, CSc1ncc(Cl)c(C(=O)Nc2ccc(NC(C)=O)cc2)n1 -6.77%, CCC1CCCCN1C(=O)Cn1c(=O)n(CCCCCC(=O)NCc2ccccc2)c(=O)c2sccc21 (stereo not given) 0.209%, COc1ccc(Cl)cc1NC(=O)c1c(NCc2ccc(C)o2)sc2c1CCCCC2 12.3%, COc1cccc(NC(=O)c2ccc3nc(CCc4ccccc4)oc3c2)c1 -18.4%, CCCCNc1nc(Oc2ccc(OCC)nn2)nc(N2CCOCC2)n1 -11.2%, COc1ccccc1CNC(=O)CCC(=O)N1CC2CCCN2c2ccccc21 (stereo not given) -6.95%, COc1ccc(-c2[nH]c3ccccc3c2SCCNC(=O)c2cc(OC)c(OC)c(OC)c2)cc1 -8.23%, O=C(NCc1ccc2c(c1)CCN2C(=O)c1ccc(F)cc1)c1cc2ccccc2[nH]1 -18.2%, COc1ccc(SCc2cc(=O)c3cc(Cl)ccc3[nH]2)cc1 -21%, c1ccc(CNc2nc3c(-c4ccccc4)nnn3c3ccccc23)cc1 -21.3%, O=C(Cc1ccc(Cl)cc1)Nc1ccc2nn(-c3ccc(Cl)cc3)nc2c1 -5.44%, COc1cccc(NC(=O)C2CCCN(S(=O)(=O)c3c(C)nn(C)c3C)C2)c1 (stereo not given) -1.84%, Cc1cccc(C)c1OCCn1c(C2CC(=O)N(c3cccc(Cl)c3)C2)nc2ccccc21 (stereo not given) -13.9%, CCOc1ccc(S(=O)(=O)NCCc2sc3nc(-c4ccc(F)cc4)nn3c2C)cc1 -11.5%, CCn1c2ccccc2c2cc(CN3CCN(Cc4ccccc4F)CC3)ccc21 -5.57%, CCOc1ccc(CCNC(=O)c2cn(CC)c3ccc(S(=O)(=O)N4CCc5ccccc5C4)cc3c2=O)cc1OCC -16.3%, CC(C)Sc1oc(-c2cccs2)nc1S(=O)(=O)c1ccc(Cl)cc1 -27.1%, CCc1ccccc1N1C(=O)N(Cc2ccc(C#N)cc2)c2ccccc2S1(=O)=O -24.4%, NC(N)=NC(N)=NCCc1ccccc1 -19.3%, CCOc1ccc(OCC)c(NS(=O)(=O)c2cc(-c3cc(C)no3)ccc2C)c1 -13.4%, Cc1ccc(CNC(=O)c2ccc(Cn3c(=O)c4ccccc4n(CC(=O)Nc4ccc(C)cc4C)c3=O)cc2)cc1 -9.7%
